Results taken from the antibiotic and cytotoxicity screens of Wong et al. (2023).
This is one part of the list.

How the values were obtained:
HSkMC = human skeletal muscle cells; experiment: cytotoxicity call (relative viability < 0.9); settings: 10 µM
HepG2 = experiment: cytotoxicity call (relative viability < 0.9); settings: 10 µM
S. aureus RN4220 = experiment: growth inhibition call (relative growth <= 0.2); settings: 50 µM

C[C@@H]1CN([C@H](C)CO)C(=O)c2cc(Br)cnc2O[C@@H]1CN(C)Cc1ccc2c(c1)OCO2
inactive: cytotoxicity call (HSkMC) | cytotoxicity call (HepG2) | growth inhibition call (S. aureus RN4220)

C[C@]1(C(=O)O)c2ccccc2C(=O)N(Cc2cc(C(F)(F)F)cc(C(F)(F)F)c2)[C@H]1c1ccc(CO)cc1
inactive: cytotoxicity call (HSkMC) | cytotoxicity call (HepG2) | growth inhibition call (S. aureus RN4220)

Cc1ccc(S(=O)(=O)Nc2cccc3c2O[C@H](CN(C)Cc2ccc(Oc4ccccc4)cc2)[C@H](C)CN([C@H](C)CO)C3=O)cc1
inactive: cytotoxicity call (HSkMC) | cytotoxicity call (HepG2) | growth inhibition call (S. aureus RN4220)

C[C@H](CO)N1C[C@H](C)[C@H](CN(C)CC2CCCCC2)Oc2ccc(NC(=O)Nc3cccc4ccccc34)cc2CC1=O
inactive: cytotoxicity call (HSkMC) | cytotoxicity call (HepG2) | growth inhibition call (S. aureus RN4220)

C[C@@H]1CN([C@@H](C)CO)C(=O)Cc2cc(NC(=O)Nc3cccc4ccccc34)ccc2O[C@H]1CN(C)S(=O)(=O)c1ccc(F)cc1
inactive: cytotoxicity call (HSkMC) | cytotoxicity call (HepG2) | growth inhibition call (S. aureus RN4220)

CN(C)Cc1cn(CC[C@H]2CC[C@H](NS(=O)(=O)c3ccccc3)[C@H](CO)O2)nn1
inactive: cytotoxicity call (HSkMC) | cytotoxicity call (HepG2) | growth inhibition call (S. aureus RN4220)

C[C@@H]1CCCCO[C@@H](CN(C)C(=O)Nc2cccc3ccccc23)[C@H](C)CN([C@@H](C)CO)C(=O)c2cc(NC(=O)c3ccncc3)ccc2O1
inactive: cytotoxicity call (HSkMC) | cytotoxicity call (HepG2) | growth inhibition call (S. aureus RN4220)

C[C@@H]1CN([C@H](C)CO)C(=O)c2cc(C#CCN(C)C)cnc2O[C@H]1CN(C)C(=O)Nc1cccc(F)c1
inactive: cytotoxicity call (HSkMC) | cytotoxicity call (HepG2) | growth inhibition call (S. aureus RN4220)

C[C@H](CO)N1C[C@H](C)[C@@H](CN(C)S(=O)(=O)c2ccc(Cl)cc2)Oc2ccc(NC(=O)Nc3cccc4ccccc34)cc2C1=O
inactive: cytotoxicity call (HSkMC) | cytotoxicity call (HepG2) | growth inhibition call (S. aureus RN4220)
